# Assay results from US20200347131A1 (SICHUAN KELUN BIOTECH BIOPHARMACEUTICAL, published 2020).
# T1: human LAG-3 (His tag) (human, UniProt P18627 23-450, limits assumed)
# T1 construct: also called LAG-3-His antigen; not shown: His tag
# T1 sequence (looked up): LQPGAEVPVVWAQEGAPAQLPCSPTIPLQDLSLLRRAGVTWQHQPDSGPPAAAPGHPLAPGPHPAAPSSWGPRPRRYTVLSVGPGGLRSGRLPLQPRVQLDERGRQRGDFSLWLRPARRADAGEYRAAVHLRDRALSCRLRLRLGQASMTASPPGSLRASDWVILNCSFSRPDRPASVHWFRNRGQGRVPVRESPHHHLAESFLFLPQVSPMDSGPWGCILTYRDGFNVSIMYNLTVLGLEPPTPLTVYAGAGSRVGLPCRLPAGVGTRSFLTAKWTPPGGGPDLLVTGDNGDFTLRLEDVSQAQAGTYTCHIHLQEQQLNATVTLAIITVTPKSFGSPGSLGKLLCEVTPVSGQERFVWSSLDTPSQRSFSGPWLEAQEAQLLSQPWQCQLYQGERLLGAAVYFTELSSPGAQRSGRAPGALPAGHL
# T2: human LAG-3 on CHO cells (CHO-hLAG-3) (human, UniProt P18627 23-525)
# T2 construct: whole, on cells; Cells prepared by Kelun Biotech Co., Ltd; also called CHO cells expressing human LAG-3
# T2 sequence (looked up): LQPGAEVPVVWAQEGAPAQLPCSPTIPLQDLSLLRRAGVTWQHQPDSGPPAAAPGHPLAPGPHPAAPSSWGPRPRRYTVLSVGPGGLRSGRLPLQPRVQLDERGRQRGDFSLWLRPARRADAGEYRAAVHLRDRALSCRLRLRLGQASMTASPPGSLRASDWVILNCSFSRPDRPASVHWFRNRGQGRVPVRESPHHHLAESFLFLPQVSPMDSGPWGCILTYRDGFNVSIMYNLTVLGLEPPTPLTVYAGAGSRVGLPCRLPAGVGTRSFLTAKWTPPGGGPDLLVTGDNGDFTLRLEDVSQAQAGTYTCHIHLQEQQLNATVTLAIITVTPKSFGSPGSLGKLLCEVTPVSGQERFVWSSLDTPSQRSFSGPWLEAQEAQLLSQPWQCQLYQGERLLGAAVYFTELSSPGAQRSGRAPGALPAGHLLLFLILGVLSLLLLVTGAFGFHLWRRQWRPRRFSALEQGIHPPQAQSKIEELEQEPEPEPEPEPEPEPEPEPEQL
# Key:
# human LAG-3 (His tag) = molecular target: T1, human LAG-3 (His tag); experiment: BLI (ForteBio Octet), LAG-3 His on Ni-NTA sensor
# Procedure: The binding affinity constant of the purified murine monoclonal antibody #27 to the antigen was determined by Bio-Layer Interferometry (BLI) using the instrument of a PALL company's ForteBio Octet RED & QK system.
# [1] = molecular target: T2, human LAG-3 on CHO cells (CHO-hLAG-3); experiment: flow cytometry, FITC-labelled antibody on CHO-hLAG-3 cells
# Procedure: 5×10⁵ cells per tube of CHO-cynoLAG-3 and CHO-hLAG-3 cells were taken respectively. […] The dilutions were mixed with cells at a ratio of 1:1, and incubated for 30 minutes at room temperature, followed by washing 3 times with pre-cooled PBS and detection by flow cytometry (Benckman, model CytoFlex). The signal values were input into GraphPad Prism to calculate the EC₅₀ values.
Kd (human LAG-3 (His tag)) [nM],koff (human LAG-3 (His tag)) [s⁻¹],kon (human LAG-3 (His tag)) [M⁻¹ s⁻¹],EC50 [1] [nM],Binder
0.12,1.3e-05,108000,13.3,"humanized antibody AB12T8 (antibody, human IgG1, kappa, Humanized by surface remodeling) heavy: DVQLQESGPGLVKPSQTLSLTCTVTGYSITSFYSWHWIRQFPGKGLEWMGAIQYSGDTDSNPSLKSRITITRDTSENQLFLKLSSVTAADTATYYCARSPYDSDPYYVMDYWGQGTLVTVSSASTKGPSVFPLAPSSKSTSGGTAALGCLVKDYFPEPVTVSWNSGALTSGVHTFPAVLQSSGLYSLSSVVTVPSSSLGTQTYICNVNHKPSNTKVDKKV[human IgG1 Fc with L234A L235A G237A (EU numbers) not printed] light: DIVMSQSPDSLAVSLGERITMTCKSSQSLLYSGNQKNYLAWYQQKPGQSPTLLIYWASTRDSGVPDRLTGSGSGTDFTLTISSVQAEDVAVYYCQQYYAYPYTFGQGTKLEIKRTVAAPSVFIFPPSDEQLKSGTASVVCLLNNFYPREAKVQWKVDNALQSGNSQESVTEQDSKDSTYSLSSTLTLSKADYEKHKVYACEVTHQGLSSPVTKSFNRGEC"
0.298,5.4e-05,181000,,"humanized antibody AB12T9 (antibody, human IgG1, kappa, Humanized by surface remodeling) heavy: DVQLQESGPGLVKPSQTLSLTCTVTGYSITSFYSWHWIRQFPGKGLEWMGAIQYSGDTDSNPSLKSRITITRDTSENQLFLKLSSVTAADTATYYCARSPYDSDPYYVMDYWGQGTLVTVSSASTKGPSVFPLAPSSKSTSGGTAALGCLVKDYFPEPVTVSWNSGALTSGVHTFPAVLQSSGLYSLSSVVTVPSSSLGTQTYICNVNHKPSNTKVDKKV[human IgG1 Fc with changes not printed] light: DIVMSQSPDSLAVSLGERITMTCKSSQSLLYSGNQKNYLAWYQQKPGQSPTLLIYWASTRDSGVPDRLTGSGSGTDFTLTISSVQAEDVAVYYCQQYYAYPYTFGQGTKLEIKRTVAAPSVFIFPPSDEQLKSGTASVVCLLNNFYPREAKVQWKVDNALQSGNSQESVTEQDSKDSTYSLSSTLTLSKADYEKHKVYACEVTHQGLSSPVTKSFNRGEC"
